Test results from the RNAGym collection of RNA variant scans (doi:10.7554/elife.90254).
The source gives no read counts; variants with many changes may rest on few reads.

B1: LINE1-mini (parent)
chain: GGCAGAGCUCAACACAGCGUGGCAAAGUGGCUGUGGCUAGACUGCC

Variants of: B1
Assay: self-cleavage, relative activity (ratio to wild type); higher = more cleavage; in vitro, sequencing; the parent is a self-cleaving ribozyme

Variant	self-cleavage
G1C G5U A12U C18U G19C U32G U43C	0.02
G1C C13G A39G G40U	0.03
G1C C3U C15G	0.05
G1C C3A G30C	0.05
G1C G2U U28A A41G	0.02
G1C G5A A6C	0.1
G1C C13A G17A G30C G33C U34A G44U	0
G1C C10A C13U G17A U34G U38C	0
G1C G2U C10G G40A C45G	0
G1C G2C G5C	0.02
G1C C15A C31U C46U	0.01
G1C C10A C13A G33A	0.02
G1C G5C G17U	0.01
G1C U9G C15U	0.04
G1C C3G U9G C15A	0.02
G1C G5A A25U G27U C46A	0.02
G1C G21A G40U	0.01
G1C G7A C10G C15G A24G U28A C37U	0
G1C C8U A12G A14G	0
G1C C3A U34A	0.04
G1C G7U G17U	0.12
G1C C8A C13U C18U G40U	0.02
G1C C3U C15G A41G U43C	0.02
G1C C15U A26C G29U A39C	0.01

Variant	self-cleavage
G1C G21U A24U	0.3
G1C C37U C42A	0.01
G1C C13A G33U	0.01
G1C C42U G44U	0.01
G1C C3U G29U C37A A41C	0.02
G1C C8U G33U	0.02
G1C G21C C45A	0.05
G1C G19U U32C C37G	0.01
G1C C8U C10U G17C A26G U43G	0.01
G1C C10A A25C	0.01
G1C C15A C23U G29A	0.03
G1C G27U C31U G44U	0.04
G1C C13U C18G A25U G27U G30U G40C	0.07
G1C C8A C15U A39U	0.02
G1C U20A A26G G30C A39U	0.11
G1C G2A G5U C10A G36A	0.02
G1C G27A C37U C42A	0.04
G1C G2U C23U G36U	0.02
G1C C37U U43A	0.01
G1C U9A U34A C37U A41G	0
G1C C15U C31U	0.01
G1C C10A A25U G36C U43A	0
G1C G19U C46A	0.16
G1C G30U A39G C42G	0.01

Variant	self-cleavage
G1C C15A C23A	0.01
G1C G35C A39C C46A	0.01
G1C G2A C8G U9G G21A C31G	0.02
G1C C3G C37G G40C	0.05
G1C G19A U28G G36A A39G	0.02
G1C G7A C8A G19A U34C C45U	0.12
G1C G33U U34A	0.01
G1C G2U G27A G35U	0.06
G1C U9A A24U G30A A41C	0.02
G1C G5A U20A	0.01
G1C C8G U28G C42A	0.02
G1C C37A G40C	0.06
G1C G2C G5A A24G G29C C31A C42G U43G	0.03
G1C U20A A26U	0.09
G1C C8A C31A G44U	0.01
G1C G7C U9G	0.02
G1C C8A A11U A14U G21C C23U U32C	0.01
G1C C13A A25U C42G	0.01
G1C G21C G29A U32C G44U C46U	0.02
G1C C18A U32G C46U	0
G1C U20G C45G	0.01
G1C G7C A11G U38A C42A	0
G1C G7U C8A U38C C46U	0.05
G1C C8A G29U C31A C46A	0.01

Variant	self-cleavage
G1C C31U U32C	0.12
G1C C13U G17U	0.02
G1C G21U G27A	0.13
G1C G30U C31U A39U	0
G1C G2U G30C	0.06
G1C G2C G19C U32A U34G A41G	0
G1C C13A G27A C42A	0.02
G1C C31G G44U	0
G1C G17A C31U G36U	0.01
G1C C8U C13A G17A G19U U20C A41G	0.01
G1C C8G G19C	0.02
G1C C37U C46G	0.01
G1C G2U C8U C18U A25G C42G	0.01
G1C G5C G7U	0.08
G1C C10A C13A G30A	0.01
G1C C10U C13U U32A	0.02
G1C G2U C13A A16U G30U C31G A41C	0.09
G1C C10A G27C C45U	0.02
G1C C15G A26C	0.01
G1C U9C A24U U32C A41G	0.01
G1C G7A U9G C13U A25C A26U	0.01
G1C G7A C42G C45G	0
G1C C3U G36C C37G G44U	0.03
G1C G21C U32G	0.01

Variant	self-cleavage
G1C C3G A6C C31G C37G U38C	0.01
G1C C3G G19C A39G	0.02
G1C C3G C18A G36U	0.08
G1C C3U C10A A16C U34C G36U	0.02
G1C G2A A4U C18G G21A U32A	0.09
G1C C42G C46G	0.01
G1C U9A C10U A12C G40A	0.01
G1C G5U C13U A26U	0.03
G1C G17C A25C	0.08
G1C C31U G35A	0.01
G1C C3U G29U C46A	0.08
G1C C8G C45G	0.01
G1C C3U G30U A39C	0.01
G1C G7A C23A	0.06
G1C C10G C15A	0.01
G1C G21U G30U	0.5
G1C G21C G30U	0.11
G1C C3A G27C G29C U43A	0.02
G1C C3G G17A A25U U28A U43C	0.05
G1C C10A A14U G40U U43G	0.01
G1C G5C G7C C13U	0.02
G1C C3U A26G A41G	0.08
G1C U9G U20G	0.02
G1C G22U G27U C37G	0.03

Variant	self-cleavage
G1C G21A C42U	0
G1C G21U A25G	0.01
G1C C8U A39C C46U	0.08
G1C G2A C18G G21C U38C A41U	0.04
G1C C15A G19U C37U	0
G1C C13G G19A U34A G36U U38A A41U	0
G1C C8G A12G A25C	0.01
G1C G2U G5A A16C A24U	0.03
G1C G7C G22C U28A	0
G1C G7A G40U	0.06
G1C C13G G19C	0.01
G1C C3U G21U C46A	0.16
G1C G2U C10A U28G	0.04
G1C G7A A25C U34C G40U	0.05
G1C G7A G19C C23G U32A	0.05
G1C G30U G35U	0.02
G1C G5A U20G G40C	0.02
G1C C10G C13G A16U G27C G33A U38G	0
G1C C13A U20G U32A A39U	0.02
G1C G7C U28A G30C C31U C37A	0.02
G1C C18A C46G	0.05
G1C C10U A16C G21A U32C	0.04
G1C C3G G27A	0.11
G1C C10G C13U A26U G44U	0.02

Variant	self-cleavage
G1C C3G C10U	0.06
G1C G29A G40C	0.03
G1C G21U G29U C42A	0.01
G1C G27U C31A	0.08
G1C G27A G33A	0.04
G1C C13U A25G U34A	0.01
G1C G7U C10G A11C U20A A26G C45U	0
G1C G2A A11G G27U C31G	0.01
G1C G5U A6C U34G	0.01
G1C G5C A41G	0.07
G1C G2C G35U A41G	0.05
G1C G2U G22C G30U G40C	0.01
G1C G2C A14U G33C G35A	0.01
G1C G5U G19U C46U	0.04
G1C G2A G19A G35U	0.02
G1C C10A C31U G35U C37U G40U	0
G1C G2A A14G A24U	0.03
G1C C18U G22A C23G G27U	0.11
G1C G7C U43C C46A	0.03
G1C C10A G27U	0
G1C G5U G7C C13A	0.05
G1C G7A U9G A14G	0.02
G1C G22A G30U	0.2
